The list shows a part of the results.
tested on: PF3D7_0420300 AP2 domain 1 (GST-tagged); assay: gcPBM binding intensity (ln(normalized median fluorescence intensity)); higher = stronger DNA binding
Method in brief: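 The binding buffer was 1× PBS containing 1% milk, 0.2 mg/ml BSA, 0.5% salmon testes DNA and 0.03% Triton X-100. In it, GST-tagged P. falciparum DNA-binding domains expressed in E. coli were applied for 1 h to an Agilent 4 × 180k array of primer-extended double-stranded 36-bp intergenic genomic probes plus negative controls. Binding intensity, read with Alexa488 anti-GST antibody and a 488 nm scan, is the highest Masliner-normalised natural-log median intensity across replicate spots of either probe orientation.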

Row | Sequence | gcPBM binding intensity (ln)
1 | GATTTTCATATTTTTTGTACTTACATTTTTCTATAC [XGTACX_site6002] | 9.59
2 | TATGTGATATATTTATCACACATTATATATATATAT [CACACA_site5103] | 9.12
3 | AATATTTAATTCAACACACATACATATTTATTAAAA [CACACA_site2342] | 9.38
4 | TAATATGAAAAGTGTACACACGCACAGACAAAAAAA [CACACA_site5594] | 9.82
5 | GCATAAATCAGACACACACACATATATAAATATGTA [CACACA_site7187] | 9.9
6 | ATTCATTTTAATATGGGTACATAAAAATAAAAAGAA [XGTACX_site2801] | 9.16
7 | TATGATGATGAATAACGTACAAAAAAATTAATCACC [XGTACX_site6794] | 9.55
8 | TACATTTTTATTTTTACACACATATTTATTTATATA [CACACA_site6609] | 9.78
9 | ATAAATATATGGTTTCATTATATTAAATTCAATTTA [CACACA_negctrl_site213] | 8.92
10 | TGTTTATTTTTTTTATGTACTTATTTTTTATTGCAT [XGTACX_site719] | 9.59
11 | AACTAAATTTATAATTGTACATTAAAATATGTATTA [XGTACX_site479] | 9.06
12 | AAATATTACATACACGCACACATTAATATATTTAAA [CACACA_site2603] | 9.56
13 | TTTTTTAAAACTTCAAAAAGAGCACTTGAATTTTTT [GTGCAC_negctrl_site455] | 8.64
14 | ACATATACATTTATATGTACTCATTTATCTTATGTA [XGTACX_site6594] | 9.3
15 | ACAAGAACAGAACGTACACACACATATATATATATA [CACACA_site9143] | 9.85
16 | ACCTAATTTTTATATTGTACATAATATAATATATAT [XGTACX_site1715] | 9.45
17 | ACCTACACAAGCATTAAACACACAAAAGGGATACTT [CACACA_site8273] | 9.75
18 | TTTTACATATATATATGTACGAAAATGAAAAGGTCA [XGTACX_site5576] | 9.19
19 | TATTATAATTTTATATGTACACATATATAAATATAT [XGTACX_site4054] | 9.03

Row | Sequence | gcPBM binding intensity (ln)
20 | AAAGTTACATTCGACACACACATAACAACTAAATAA [CACACA_site3419] | 9.86
21 | CTAAATAAAGTTAACACACACATAATATTTATATGT [CACACA_site6368] | 9.61
22 | TACATAAACATTTATACACACATTAGATATACATAT [CACACA_site6329] | 9.59
23 | TCAAAGAGTAGAAAGGTGCTTATGAACGAGATAATT | 9.25
24 | TCATACCTACATAAAAAAAGGGAAACAAAATGTCAT [XGTACX_negctrl_site34] | 9.34
25 | AATAAATATAAATACACACCCATATATATATATATA [CACACA_site5436] | 9.45
26 | TTAAAAAAAAAAAAAAGTACACACTTATAAAATATT [XGTACX_site1630] | 9.45
27 | ACCAATAAATATTTGGTGCATACATATATATATATA | 9.15
28 | CTCCACAAACAAATCGCACACCCAACCCAACATATA [CACACA_site2650] | 9.86
29 | ATAGAACTGAATAAATCTATAAATAAATATATATAT [GTGCAC_negctrl_site604] | 9.17
30 | TATTATAATGACTATAGTACATAATATTATTTATAT [XGTACX_site1977] | 9.08
31 | TATATATTTATATTTACACACAGTTACTATGTAGAT [CACACA_site3292] | 9.51
32 | ATTAAATGATCAAGGTGTACATTAACAAGAACTATA [XGTACX_site7022] | 9.29
33 | TGAATAAAAAAACCTAGTACTTAAATAAGTATATTT [XGTACX_site7690] | 9.16
34 | TATATATATACATACGTACACACAAATATTAAAATA [CACACA_site1950] | 9.6
35 | TAAAAAAAATAGAAACGTACATAAAAAATAAATAAT [XGTACX_site5796] | 9.73
36 | TCATATAAAACATGCACACATATGTACTCTTATAAA [CACACA_site3748] | 9.33
37 | TATATTTATATATGTTGTACTCTCCAATAATATTCC [XGTACX_site4438] | 9.28
38 | ATATATATATATAGGGGTACTTAAATTTTACTAACC [XGTACX_site1832] | 9.43

Row | Sequence | gcPBM binding intensity (ln)
39 | ATTTTATTTATATACACACACATATATATATTATAT [CACACA_site822] | 9.79
40 | TTGTATCTTCATTTTATCAGAAAAAAAAAAAAAAAT [CACACA_negctrl_site775] | 8.75
41 | AATAAATAAATAAATTAATATATATATATATATAGA [CACACA_negctrl_site1661] | 9.2
42 | AAAGGGTTACAAGAGGAACACACAAAAAAATAAATA [CACACA_site8406] | 9.62
43 | AGCACCCACCAACACACACACACACCCACCCACCGA [CACACA_site368] | 10.3
44 | TTTTGCGAAAAAAGGTGTACTGTAAATATATTGAGG [XGTACX_site8941] | 9.09
45 | AAATAAATAAATATACGTACATATATATAATATATA [XGTACX_site5124] | 9.38
46 | TACGTAAATTTTAATACACACTATAGGATATTCTGC [CACACA_site5418] | 9.22
47 | TTTTTTTTGATTTGTTTGCACTTATTTCCACAATAA | 9.35
48 | TTTTTTTTTAATTACATAAAATAAAAATATTTCTAT [CACACA_negctrl_site584] | 8.75
49 | TTAATATGTTTAACCATTTTACATAAATTGATTTGT [CACACA_negctrl_site1100] | 9.25
50 | TTTTTAAAAAAATTGATTCTTTTTCTTTTTTTTCTT [XGTACX_negctrl_site127] | 8.78
51 | TTTTTTGCTTGGGTGAGAAAAAATAAAATAAAGGAA [TGCATGCA_negctrl_site139] | 8.96
52 | TTATAATCTTTTGGTTCTATAGAATATCAAAAAATA [CACACA_negctrl_site1149] | 8.76
53 | AAAAAATAAAAGGAAAAAAAAAAAAAAAAAAAAAAT [CACACA_negctrl_site635] | 9.46
54 | TATTATTGTCATTTTTTTTTTTTTTTTTTCTATTTC [XGTACX_negctrl_site114] | 9.31
55 | TTATTAAAAATGTATTGTACAAATTTATTAGTAAAT [XGTACX_site4799] | 9.02
56 | ATTTATACAAAGCTTCGTACATAATGTATTCTTTTT [XGTACX_site2166] | 9.37
